Measurements from the supplement of paper PMC12578646, “Prodrug florfenicol amine is activated by intrinsic resistance to target Mycobacterium abscessus” (Nature Microbiology, 2025).

How the values were obtained:
Test in all cases: growth relative to untreated wells; higher = more growth (less inhibition)
[1] = system: Mycobacterium abscessus ATCC 19977 Eis2 E120fs
Method: (§1)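 384-well two-fold dose series, two replicates; 5 days at 37 °C, then 24 h with resazurin; fluorescence scaled to growth and killed controls.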

[2] = system: Mycobacterium abscessus ATCC 19977 Eis2 T258R
Method: as §1

[3] = system: Mycobacterium abscessus ATCC 19977 Eis2 Y227D
Method: as §1

[4] = system: Mycobacterium abscessus ATCC 19977 Eis2 Y255*
Method: as §1

[5] = system: Mycobacterium abscessus ATCC 19977 Eis2 Y284*
Method: as §1

[6] = system: Mycobacterium abscessus ATCC 19977 WhiB7 F24fs
Method: as §1

[7] = system: Mycobacterium abscessus ATCC 19977 WhiB7 L37P
Method: as §1

[8] = system: Mycobacterium abscessus ATCC 19977 WhiB7 R76del
Method: as §1

[9] = system: Mycobacterium abscessus ATCC 19977 WhiB7 T70fs
Method: as §1

[10] = system: Mycobacterium abscessus ATCC 19977 Δeis2
Method: as §1

[11] = system: Mycobacterium abscessus ATCC 19977 ΔwhiB7
Method: as §1

[12] = system: Mycobacterium abscessus ATCC 19977
Method: as §1

CS(=O)(=O)c1ccc([C@@H](O)[C@@H](CO)NC(=O)C(Cl)Cl)cc1 [thiamphenicol]
Settings	growth [%]
[1], 0.5 µg/mL	105
[1], 1 µg/mL	108.7
[1], 2 µg/mL	112.9
[1], 4 µg/mL	110
[1], 8 µg/mL	105
[1], 16 µg/mL	112
[1], 32 µg/mL	114
[1], 64 µg/mL	114
[1], 128 µg/mL	122
[1], 256 µg/mL	116
[1], 512 µg/mL	121
[1], 1024 µg/mL	22.2
[2], 0.5 µg/mL	97.3
[2], 1 µg/mL	105
[2], 2 µg/mL	101
[2], 4 µg/mL	109
[2], 8 µg/mL	95.9
[2], 16 µg/mL	101
[2], 32 µg/mL	103
[2], 64 µg/mL	105
[2], 128 µg/mL	110
[2], 256 µg/mL	87.8
[2], 512 µg/mL	56.1
[2], 1024 µg/mL	5.99
[3], 0.5 µg/mL	106
[3], 1 µg/mL	106.2
[3], 2 µg/mL	106
[3], 4 µg/mL	114
[3], 8 µg/mL	104
[3], 16 µg/mL	103
[3], 32 µg/mL	108
[3], 64 µg/mL	111
[3], 128 µg/mL	119
[3], 256 µg/mL	118.7
[3], 512 µg/mL	117
[3], 1024 µg/mL	24.8
[4], 0.5 µg/mL	106
[4], 1 µg/mL	102
[4], 2 µg/mL	98.8
[4], 4 µg/mL	107.7
[4], 8 µg/mL	99.79
[4], 16 µg/mL	108
[4], 32 µg/mL	104
[4], 64 µg/mL	113
[4], 128 µg/mL	116
[4], 256 µg/mL	117
[4], 512 µg/mL	103
[4], 1024 µg/mL	13.5
[5], 0.5 µg/mL	103
[5], 1 µg/mL	103
[5], 2 µg/mL	102
[5], 4 µg/mL	107
[5], 8 µg/mL	99.7
[5], 16 µg/mL	107.2
[5], 32 µg/mL	104
[5], 64 µg/mL	108.11
[5], 128 µg/mL	116
[5], 256 µg/mL	112
[5], 512 µg/mL	89.6
[5], 1024 µg/mL	9.04
[6], 0.5 µg/mL	105.5
[6], 1 µg/mL	113
[6], 2 µg/mL	102
[6], 4 µg/mL	111.2
[6], 8 µg/mL	108
[6], 16 µg/mL	117
[6], 32 µg/mL	18.8
[6], 64 µg/mL	3
[6], 128 µg/mL	-0.477
[6], 256 µg/mL	-1.45
[6], 512 µg/mL	-1.2
[6], 1024 µg/mL	-0.734
[7], 0.5 µg/mL	115
[7], 1 µg/mL	105
[7], 2 µg/mL	93.3
[7], 4 µg/mL	110.2
[7], 8 µg/mL	109
[7], 16 µg/mL	119
[7], 32 µg/mL	39.9
[7], 64 µg/mL	5.01
[7], 128 µg/mL	-0.0304
[7], 256 µg/mL	-1.14
[7], 512 µg/mL	-1.2
[7], 1024 µg/mL	-1.01
[8], 0.5 µg/mL	104
[8], 1 µg/mL	108
[8], 2 µg/mL	103
[8], 4 µg/mL	110
[8], 8 µg/mL	107
[8], 16 µg/mL	117.3
[8], 32 µg/mL	20.4
[8], 64 µg/mL	2.99
[8], 128 µg/mL	-0.697
[8], 256 µg/mL	-1.7
[8], 512 µg/mL	-1.52
[8], 1024 µg/mL	-1.02
[9], 0.5 µg/mL	104.3
[9], 1 µg/mL	106
[9], 2 µg/mL	94.2
[9], 4 µg/mL	105
[9], 8 µg/mL	100
[9], 16 µg/mL	116.8
[9], 32 µg/mL	27.7
[9], 64 µg/mL	5.69
[9], 128 µg/mL	-2.96
[9], 256 µg/mL	-3.31
[9], 512 µg/mL	-3.29
[9], 1024 µg/mL	-3.22
[10], 0.5 µg/mL	99.1
[10], 1 µg/mL	99
[10], 2 µg/mL	98.4
[10], 4 µg/mL	102
[10], 8 µg/mL	96.4
[10], 16 µg/mL	100.4
[10], 32 µg/mL	96.8
[10], 64 µg/mL	102
[10], 128 µg/mL	105
[10], 256 µg/mL	87.2
[10], 512 µg/mL	55.8
[10], 1024 µg/mL	8.06
[11], 0.5 µg/mL	108
[11], 1 µg/mL	105.4
[11], 2 µg/mL	98.3
[11], 4 µg/mL	108
[11], 8 µg/mL	110
[11], 16 µg/mL	122
[11], 32 µg/mL	74.9
[11], 64 µg/mL	15
[11], 128 µg/mL	1.16
[11], 256 µg/mL	-1.52
[11], 512 µg/mL	-3.09
[11], 1024 µg/mL	-3.09
[12], 0.5 µg/mL	97
[12], 1 µg/mL	107
[12], 2 µg/mL	106
[12], 4 µg/mL	106.8
[12], 8 µg/mL	99.1
[12], 16 µg/mL	106.9
[12], 32 µg/mL	96.9
[12], 64 µg/mL	108
[12], 128 µg/mL	115
[12], 256 µg/mL	71.2
[12], 512 µg/mL	46.62
[12], 1024 µg/mL	5.53

CN(C)c1cc(NC(=O)CNC(C)(C)C)c(O)c2c1C[C@H]1C[C@H]3[C@H](N(C)C)C(O)=C(C(N)=O)C(=O)[C@@]3(O)C(O)=C1C2=O [tigecycline]
Settings	growth [%]
[1], 0.00390625 µg/mL	107
[1], 0.0078125 µg/mL	104.1
[1], 0.015625 µg/mL	100.6
[1], 0.03125 µg/mL	98.3
[1], 0.0625 µg/mL	98.8
[1], 0.125 µg/mL	102.4
[1], 0.25 µg/mL	119
[1], 0.5 µg/mL	128.2
[1], 1 µg/mL	108
[1], 2 µg/mL	2.75
[1], 4 µg/mL	-6.06
[2], 0.00390625 µg/mL	103
[2], 0.0078125 µg/mL	105
[2], 0.015625 µg/mL	102
[2], 0.03125 µg/mL	104
[2], 0.0625 µg/mL	105
[2], 0.125 µg/mL	108
[2], 0.25 µg/mL	116
[2], 0.5 µg/mL	121.8
[2], 1 µg/mL	68.9
[2], 2 µg/mL	0.745
[2], 4 µg/mL	-6.04
[3], 0.00390625 µg/mL	108
[3], 0.0078125 µg/mL	102.7
[3], 0.015625 µg/mL	104.9
[3], 0.03125 µg/mL	104
[3], 0.0625 µg/mL	95.3
[3], 0.125 µg/mL	94
[3], 0.25 µg/mL	109
[3], 0.5 µg/mL	122
[3], 1 µg/mL	92.7
[3], 2 µg/mL	8.06
[3], 4 µg/mL	-5.15
[4], 0.00390625 µg/mL	104.2
[4], 0.0078125 µg/mL	104
[4], 0.015625 µg/mL	104
[4], 0.03125 µg/mL	102
[4], 0.0625 µg/mL	92.7
[4], 0.125 µg/mL	99.8
[4], 0.25 µg/mL	117
[4], 0.5 µg/mL	121
[4], 1 µg/mL	107
[4], 2 µg/mL	1.81
[4], 4 µg/mL	-6.8
[5], 0.00390625 µg/mL	103.2
[5], 0.0078125 µg/mL	101
[5], 0.015625 µg/mL	103
[5], 0.03125 µg/mL	106
[5], 0.0625 µg/mL	94.456
[5], 0.125 µg/mL	97.8
[5], 0.25 µg/mL	108.8
[5], 0.5 µg/mL	121
[5], 1 µg/mL	98.6
[5], 2 µg/mL	3.03
[5], 4 µg/mL	-5.15
[6], 0.00390625 µg/mL	104
[6], 0.0078125 µg/mL	105
[6], 0.015625 µg/mL	95.7
[6], 0.03125 µg/mL	104
[6], 0.0625 µg/mL	99.3
[6], 0.125 µg/mL	105
[6], 0.25 µg/mL	118
[6], 0.5 µg/mL	127
[6], 1 µg/mL	8.22
[6], 2 µg/mL	-4.343
[6], 4 µg/mL	-7.2
[7], 0.00390625 µg/mL	95
[7], 0.0078125 µg/mL	98.2
[7], 0.015625 µg/mL	96.1
[7], 0.03125 µg/mL	103.8
[7], 0.0625 µg/mL	110
[7], 0.125 µg/mL	115
[7], 0.25 µg/mL	116.9
[7], 0.5 µg/mL	125.7
[7], 1 µg/mL	15.3
[7], 2 µg/mL	-4.19
[7], 4 µg/mL	-6.88
[8], 0.00390625 µg/mL	98
[8], 0.0078125 µg/mL	102
[8], 0.015625 µg/mL	103
[8], 0.03125 µg/mL	98.1
[8], 0.0625 µg/mL	105
[8], 0.125 µg/mL	107
[8], 0.25 µg/mL	115.1
[8], 0.5 µg/mL	125.1
[8], 1 µg/mL	18
[8], 2 µg/mL	-4.59
[8], 4 µg/mL	-7.59
[9], 0.00390625 µg/mL	104.4
[9], 0.0078125 µg/mL	98.9
[9], 0.015625 µg/mL	95.3
[9], 0.03125 µg/mL	104
[9], 0.0625 µg/mL	101.66
[9], 0.125 µg/mL	95.9
[9], 0.25 µg/mL	119
[9], 0.5 µg/mL	123
[9], 1 µg/mL	13.1
[9], 2 µg/mL	-6.81
[9], 4 µg/mL	-9.48
[10], 0.00390625 µg/mL	101
[10], 0.0078125 µg/mL	104
[10], 0.015625 µg/mL	102
[10], 0.03125 µg/mL	102.9
[10], 0.0625 µg/mL	106.2
[10], 0.125 µg/mL	98.2
[10], 0.25 µg/mL	114
[10], 0.5 µg/mL	120
[10], 1 µg/mL	56.2
[10], 2 µg/mL	-2.79
[10], 4 µg/mL	-7.76
[11], 0.00390625 µg/mL	101
[11], 0.0078125 µg/mL	100.5
[11], 0.015625 µg/mL	105
[11], 0.03125 µg/mL	102
[11], 0.0625 µg/mL	102
[11], 0.125 µg/mL	100
[11], 0.25 µg/mL	108
[11], 0.5 µg/mL	137
[11], 1 µg/mL	54
[11], 2 µg/mL	-5.92
[11], 4 µg/mL	-9.05
[12], 0.00390625 µg/mL	97.7
[12], 0.0078125 µg/mL	104
[12], 0.015625 µg/mL	104
[12], 0.03125 µg/mL	96.1
[12], 0.0625 µg/mL	95
[12], 0.125 µg/mL	100.8
[12], 0.25 µg/mL	113
[12], 0.5 µg/mL	123
[12], 1 µg/mL	82.2
[12], 2 µg/mL	-0.0321
[12], 4 µg/mL	-6.21

M. abscessus ATCC 19977 and its deletion, point and complemented mutants after 5 days of drug at 37 °C plus 24 h of resazurin. Growth in % of untreated wells at the dose given (lower = more inhibition); checkerboards give % inhibition (higher = more inhibition); IC50 from the fitted curve (lower = more potent). No active / inactive call. IC50 values come from the same 384-well curves. Growth is not capped and can exceed 100%. The direction of the checkerboard scale is read from the raw signals. Capreomycin is a mixture.
